Drawing on PubChem BioAssay AID463173 (ICCB-Longwood Screening Facility, Harvard Medical School, 2010), this text covers survival for 56 compounds.

Screen size: about 52,000 compounds; about 1,700 (3.3%) were called active. Rule as the data show it: active = survival mostly below about 52% (no sharp cut-off); inactive = mostly above about 56%. This is one part of the list.

This test relates to Wild type. The test is described as follows: S. aureus survival, RN4220 and DeltatarO strains – OD600, teichoic acid synthesis inhibitors, primary screen (AID 463173). The settings on record: S. aureus RN4220 wild type/DeltatarO growth, OD600, 18 h, hits give low values, screened at 18.75 µg/mL (by protocol).
On to `CCN(C(=O)CCc1nc(-c2ccc(C)cc2)no1)c1cccc(Cl)c1`, for which the survival was active: -1%.
To `Cc1ccc(-c2nc(NC(=O)CSc3ccc4ccccc4n3)ns2)cc1` belongs inactive: 83%; to `C1Cc2nn3c(c2C1)n1nc2c(c1n1nc4c(c31)CCC4)CCC2`, inactive: 95%.
To `CCN1CC=C2C(C#N)=C(N)C(C#N)(C#N)C(c3ccc(OC)c4ccccc34)C2C1` (stereo unspecified) belongs inactive: 114%.
Take `Cc1ccccc1OCC(=O)Nc1ccc(C(=O)OCc2cc(=O)n3ccsc3n2)cc1`: the survival was inactive: 128%.
For the compound `Cc1ccccc1NC(=O)c1nc(S(C)(=O)=O)ncc1N(Cc1ccco1)Cc1sccc1C`, the survival was inactive: 81%.
Turning to `CCN(CC)C(=O)c1sc(NC(C)=O)c(C(=O)OC)c1C`, the survival was inactive: 108%.
Consider `COC(=O)c1cc2sccc2n1CC(=O)Nc1ccc(C)cc1C`, for which the survival is inactive: 81%.
With `COc1cc2c(cc1OC)C(COc1ccc3c(C)cc(=O)oc3c1)N(C(=O)Cc1ccccc1)CC2` (stereo unspecified) the figure was inactive: 94%; with `Cc1ccc(S(=O)(=O)c2cn(Cc3ccccc3)c3cc(N4CCCC4)c(F)cc3c2=O)cc1`, inactive: 68%.
For `Cc1cc(C)c(Cn2c3ccccc3c3cnn(CC(=O)NCCC4=CCCCC4)c(=O)c32)c(C)c1`, the survival is inactive: 72%.
With `COc1cccc(CNC(=O)c2ccc3nc(-c4ccccc4)c(-c4ccccc4)nc3c2)c1OC`, the survival was inactive: 71%.
`CCOc1ccccc1C(=O)NC1(C(F)(F)F)C(=O)Nc2c1c(=O)[nH]c(=O)n2-c1ccccc1` (stereo unspecified): the survival was inactive: 68%.
For the compound `CCC(C)Sc1oc(-c2ccco2)nc1S(=O)(=O)c1ccc(Cl)cc1` (stereo unspecified), the survival was inactive: 25%.
To `Cc1sc2nc(SCC(=O)NCCCN3CCOCC3)[nH]c(=O)c2c1C` belongs inactive: 106%; to `COc1ccc(Nc2nnc(-c3ccc(C)c(S(=O)(=O)NCc4nc5ccccc5[nH]4)c3)c3ccccc23)cc1`, inactive: 131%.
In the case of `CN(C)CC[n+]1ccc(C(=O)c2ccccc2)cc1`, the survival is inactive: 109%.
`Clc1ccc(-c2csc(-c3nc(-c4ccc(Br)s4)cs3)n2)cc1`: the survival is inactive: 69%.
To `O=C(NCc1ccc(Cl)cc1)c1ccc2c(c1)NC(=O)C(CS(=O)(=O)Cc1ccc(F)cc1Cl)N2` (stereo unspecified) belongs inactive: 83%; to `Cc1ccc(NC(=O)Cn2nnc(C(=O)NCCc3ccccc3)c2N)cc1`, inactive: 79%.
With `COc1ccc(C)cc1NC(=O)c1cc2ccccn2n1` the figure was inactive: 71%; with `O=C(CCC1CCCC1)N1CCN(C2CCCCC2)CC1`, inactive: 104%; with `O=C(CCN1CCN(CCO)CC1)Nc1ccc(Br)cc1`, inactive: 70%.
`CCc1ccc(NC(=O)C2CCCN(S(=O)(=O)c3cccc4nsnc34)C2)cc1` (stereo unspecified): the survival was inactive: 76%.
As for `Cc1cccc(CN2C(=O)c3ccccc3S(=O)(=O)c3ccc(C(=O)N(C)Cc4ccccc4)cc32)c1`, the survival is inactive: 94%.
In the case of `Cc1ccc(Nc2c(-c3ccc(N4CCOCC4)cc3)nc3cccc(C)n23)cc1`, the survival is inactive: 87%.
As for `O=C1CC(c2nnc(Cc3c(F)cccc3Cl)o2)CN1c1ccccc1` (stereo unspecified), the survival is inactive: 102%.
Consider `Cc1ccc(NC(=O)c2c(C)nc3sc(C(=O)Nc4ccc(F)cc4)c(N)c3c2-c2ccc(Cl)cc2)c(C)c1`, for which the survival was inactive: 70%.
Regarding `COc1cccc(NC(=O)CCc2nnc3n(Cc4ccccc4Cl)c(=O)c4ccccc4n23)c1`, the survival is inactive: 84%.
Take `COC(=O)C1=C(C)OC(N)=C(C#N)C1c1cc2ccc(C)cc2[nH]c1=O` (stereo unspecified): the survival was inactive: 113%.
With `Cc1ccc(NCc2nnc(SCC(=O)N3CCOCC3)o2)c(C)c1`, the survival was inactive: 109%.
On to `CCOc1ccccc1C(=O)Nc1ccc(-n2nncc2-c2ccccc2)cc1`, for which the survival was inactive: 140%.
With `COc1ccccc1C(=O)Nc1nnc(S(=O)(=O)N2CCN(c3ccc(F)cc3)CC2)s1` the figure was inactive: 78%; with `CCOC(=O)c1ccc(NC(=O)c2sc3ccccc3c2Cl)cc1`, inactive: 78%.
For the compound `Cc1ccc(-c2nnc3ccccc3c2C(=O)Nc2ccc(C)c(F)c2)cc1`, the survival is inactive: 74%.
With `CCOC(=O)c1ccc(NC2(c3ccccc3)C(=O)c3ccccc3C2=O)cc1` the figure was inactive: 89%; with `COc1cc(OC)c(NS(=O)(=O)c2cc3c(cc2C)N(C(C)=O)CCO3)cc1Cl`, inactive: 79%; with `CCc1nnc(SCc2nc(-c3cccc(Cl)c3)oc2C)c2cc3sc(C)cc3n12`, inactive: 85%.
For `CN(C)CCN1C(=O)c2ccccc2C1=O`, the survival is inactive: 106%.
With `COc1ccccc1NC(=O)CN(c1cc(C)cc(C)c1)S(=O)(=O)c1c(C)[nH]c(=O)[nH]c1=O` the figure was inactive: 132%; with `CCC(C(=O)Nc1ccc(C(C)C)cc1)n1nc(C)n2c(cc3cc(C)ccc32)c1=O` (stereo unspecified), inactive: 74%.
In the case of `NC(=O)c1c(NC(=O)c2cc(-c3ccc(F)cc3)on2)sc2c1CCCC2`, the survival was inactive: 68%.
In the case of `Cc1cccc(NC(=O)Cn2nnc(C(=O)NCc3cccs3)c2N)c1`, the survival was inactive: 89%.
`Cc1ccc(C)c(Cn2c(=O)cc(C(F)(F)F)c3c(C)nn(C)c32)c1`: the survival is inactive: 99%.
In the case of `Cc1ccccc1C(=O)NCc1nc(-c2ccc(Cl)cc2)no1`, the survival was inactive: 57%.
Take `CC(=O)Nc1cc(-c2ccc(Cl)cc2)[nH]n1`: the survival was inactive: 100%.
Turning to `CN(C)c1ccc(CNC(=O)C2CCCN(S(=O)(=O)c3ccc4c(c3)CCCC(=O)N4)C2)cc1` (stereo unspecified), the survival is inactive: 128%.
Consider `CC(=O)Nc1ccc(NC(NC(=O)c2ccco2)C(=O)c2ccc(Cl)cc2)cc1` (stereo unspecified), for which the survival is inactive: 99%.
Regarding `COc1ccc(Cl)cc1NC(=O)CCn1c(=O)c2cccn2c2ccccc21`, the survival was inactive: 59%.
With `CCOc1ccc2oc(=O)cc(CN3CCN(Cc4ccc(C)cc4)CC3)c2c1` the figure was inactive: 71%.
As to `Cc1ccc(Nc2c3c(nc4nc(-c5cccs5)nn24)CCCC3)cc1F`, the survival was active: -3%.
Turning to `Cc1cc(OCCN2CCOCC2)nc(N2CCOCC2)n1`, the survival is inactive: 97%.
For `COc1ccc(N2C(=O)CSC23C(=O)N(Cc2cccc(C(F)(F)F)c2)c2ccccc23)cc1` (stereo unspecified), the survival was inactive: 73%.
To `CN(CCc1ccccn1)C(=O)c1nn2c(C(F)(F)F)cc(-c3ccco3)nc2c1Cl` belongs inactive: 104%; to `COc1ccccc1OCC(=O)N(Cc1cccs1)C1CCS(=O)(=O)C1` (stereo unspecified), inactive: 65%.
With `Cc1ccc(S(=O)(=O)c2nc(-c3cccs3)oc2SCC(=O)Nc2cc(C)cc(C)c2)cc1`, the survival is inactive: 83%.
